# Screen size: about 310,000 compounds; about 14,000 (4.5%) showed an effect of 50% or more. The effect is printed as a negative number. This is one part of the list.
# Target: human ether-à-go-go-related gene (hERG) potassium channel (human, UniProt Q12809)
# Assay: primary screen, population patch clamp on CHO cells stably expressing hERG
# 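Further: peak tail current of the secondary pulse compared with the same well before compound.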
# Sequence of human ether-à-go-go-related gene (hERG) potassium channel (Q12809 whole entry, looked up): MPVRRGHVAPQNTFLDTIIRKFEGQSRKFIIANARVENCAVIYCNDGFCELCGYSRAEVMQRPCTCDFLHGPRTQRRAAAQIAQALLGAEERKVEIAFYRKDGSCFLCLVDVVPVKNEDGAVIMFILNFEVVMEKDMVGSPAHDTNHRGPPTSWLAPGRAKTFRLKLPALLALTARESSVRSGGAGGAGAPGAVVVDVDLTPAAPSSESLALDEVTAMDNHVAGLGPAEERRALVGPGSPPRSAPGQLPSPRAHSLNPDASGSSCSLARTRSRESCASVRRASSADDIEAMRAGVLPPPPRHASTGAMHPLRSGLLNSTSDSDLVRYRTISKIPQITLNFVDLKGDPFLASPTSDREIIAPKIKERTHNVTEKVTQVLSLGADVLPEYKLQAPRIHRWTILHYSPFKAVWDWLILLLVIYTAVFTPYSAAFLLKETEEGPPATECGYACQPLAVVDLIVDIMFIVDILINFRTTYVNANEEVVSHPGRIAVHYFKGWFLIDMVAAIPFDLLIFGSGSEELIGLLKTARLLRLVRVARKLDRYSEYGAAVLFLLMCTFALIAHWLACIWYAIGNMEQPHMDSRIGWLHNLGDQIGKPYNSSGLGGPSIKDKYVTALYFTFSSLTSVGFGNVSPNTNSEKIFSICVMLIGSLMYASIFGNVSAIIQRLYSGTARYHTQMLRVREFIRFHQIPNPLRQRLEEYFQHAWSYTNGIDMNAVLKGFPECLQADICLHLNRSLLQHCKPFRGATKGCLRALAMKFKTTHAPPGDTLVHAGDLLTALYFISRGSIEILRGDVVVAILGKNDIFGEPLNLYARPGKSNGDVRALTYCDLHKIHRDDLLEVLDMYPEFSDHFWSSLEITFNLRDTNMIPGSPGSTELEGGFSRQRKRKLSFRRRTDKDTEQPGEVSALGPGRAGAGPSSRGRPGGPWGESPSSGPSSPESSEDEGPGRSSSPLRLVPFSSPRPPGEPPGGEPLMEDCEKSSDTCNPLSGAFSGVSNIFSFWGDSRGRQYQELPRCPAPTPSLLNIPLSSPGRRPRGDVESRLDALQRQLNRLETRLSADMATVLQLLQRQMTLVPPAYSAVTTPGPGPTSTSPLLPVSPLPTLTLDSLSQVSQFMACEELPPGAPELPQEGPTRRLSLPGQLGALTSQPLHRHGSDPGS
row,Structure (SMILES),"hERG current change (%, negative = inhibition) at 10uM"
1,Cn1c(SCC(=O)NNC(=O)Nc2ccc(Cl)cc2)nnc1-c1ccccc1,7.36%
2,CCOC(=O)Cn1cnc2c(nnn2-c2cccc(OC)c2)c1=O,9.76%
3,COc1ccc(C(=O)NNS(=O)(=O)c2ccc(C)cc2)cc1,-9.83%
4,Cc1cc(C)nc(NS(=O)(=O)c2ccc(N=Cc3c(O)n(C)c(=O)n(C)c3=O)cc2)n1,11.4%
5,Cc1cc(NC(=O)CSc2nnc(-c3cccnc3)n2Cc2ccccc2)no1,10.8%
6,O=S1(=O)CCOC[C@H](CC2CCCCC2)N1Cc1ccc(Cl)cc1,7.51%
7,O=C(O)CSc1ccc(Oc2ccc(SCC(=O)O)cc2)cc1,8.02%
8,COc1ccc([N+](=O)[O-])cc1N(CC(O)CN1CCCC1)S(=O)(=O)c1ccc(C)cc1 (centres unmarked),-2.85%
9,CC1CCN(C(=O)COC(=O)C(C)N2C(=O)c3ccccc3C2=O)CC1 (centres unmarked),-3.43%
10,O=C1c2ccccc2C(Nc2cccnc2)N1Cc1ccccc1Cl (centres unmarked),-38.8%
11,COC(=O)[C@H](CCSC)NC(=O)Nc1ccc(S(N)(=O)=O)cc1,5.25%
12,CN1CCN(c2ccc(S(=O)(=O)N3CCOCC3)cc2NC(=O)COc2ccc(F)cc2Cl)CC1,-61.5%
13,NC(=O)COC(=O)c1cc([N+](=O)[O-])ccc1NCCO,3.83%
14,O=C(CN1CCOCC1)NNC(=S)Nc1ccccc1,-29.9%
15,O=C(COC(=O)C1=NN(c2ccccc2)C(=O)CC1)Nc1ccc([N+](=O)[O-])cc1C(F)(F)F,5.08%
16,O=[N+]([O-])c1ccc(NCCNS(=O)(=O)c2ccccc2)c(C(F)(F)F)c1,-16.3%
17,C=C(C)Cn1c(Sc2nc3ccccc3[nH]2)nc2c1c(=O)[nH]c(=O)n2C,-18.2%
18,CC(C)c1nnc(NC(=O)C2CCN(C(=O)Nc3ccccc3)CC2)s1,-1.35%
19,CCn1c(=O)c(=O)[nH]c2cc(C(=O)NCC3CCCCC3)ccc21,-13.9%

row,Structure (SMILES),"hERG current change (%, negative = inhibition) at 10uM"
1,CCOCCCNC(=O)c1ccc2c(c1)ncn2-c1ccccc1OC,-4.39%
2,O=C(CSc1nnc(-c2cccc(S(=O)(=O)N3CCOCC3)c2)n1C1CCCCCC1)NCc1ccccc1,-17.5%
3,CN1CCCC(C(=O)c2ccccc2)C1.O=C(O)/C=C/C(=O)O (centres unmarked),10.6%
4,O=C(Nc1ccc(N2CCOCC2)cc1)c1cnccn1,28%
5,CS(=O)(=O)N1CCc2cc(C(=O)NC3CC3)ccc21,17%
6,Cc1ccc(NC(=O)CSc2ccccn2)cc1S(=O)(=O)N1CCOCC1,0.975%
7,C#CCOCCOCCOCCNc1nc(N2CCOCC2)nc(N2CCN(C(=O)[C@H]([C@@H](C)CC)n3cc([C@@H](N)CO)nn3)CC2)n1.Cl,2.8%
8,CCOC(=O)C1=C(CCl)NC(=O)NC1c1ccc2c(c1)OCO2 (centres unmarked),-2.64%
9,O=C(Nc1ccc(-n2cnnn2)cc1)C1CCCN1C(=O)NC1CCCCC1 (centres unmarked),-63.3%
10,C=CCn1c(O)c(/C=C/C=Nc2ccccc2)c(=O)[nH]c1=O,24.8%
11,COc1ccc(N2CC(C(=O)Nc3nnc(SCC(=O)c4ccccc4)s3)CC2=O)cc1 (centres unmarked),19.5%
12,CCN(CC)c1nc(-c2ccccn2)nc(-c2ccccc2)c1C#N,-20.4%
13,CCOC(=O)c1c(C)sc2c1N(C(=O)CN1CCOCC1)c1cc(Cl)ccc1S2,-21.5%
14,Cc1ccc(NC(=O)CSc2ncc(S(=O)(=O)c3ccccc3)c(=O)[nH]2)cc1C,-8.72%
15,C/C(=N\NC(=O)C1(C)CC1(Br)Br)c1cccc(NC(=O)C(C)(C)C)c1 (centres unmarked),0.384%
16,COc1ccc(C2=NOC(C(=O)NCc3cccnc3)C2)cc1OC (centres unmarked),14%
17,O=C(Cn1c(=O)c2cccn2c2ccccc21)NCCc1ccccc1,16.5%
18,Cc1nc(=O)cc(-c2ccccc2)n1-c1ccccc1,11.4%
19,C(=N\c1nc2ccccc2[nH]1)/c1cccs1,9.96%

row,Structure (SMILES),"hERG current change (%, negative = inhibition) at 10uM"
1,O=C(CSc1ncnc2nc[nH]c12)c1ccc([N+](=O)[O-])cc1,18.6%
2,CCCCn1c(C)c(C(=O)O)c2cc(OC)c3ccccc3c21,15.6%
3,COc1cc2ccc3c(CCN(C)C)cc(OC)c(OC)c3c2cc1OC.Cl,-44.5%
4,COc1ccc(C2/C(=C(\O)c3cc(C)ccc3C)C(=O)C(=O)N2CCN(C)C)cc1OC (centres unmarked),-2.4%
5,Cc1ccc(CNC(=O)CCc2c(C)nc3c(c(C)nn3-c3ccc(C)cc3)c2C)cc1,10.1%
6,Cn1ccsc1=NC(=O)c1ccccc1OC(F)F,20.2%
7,Cc1cc(C)c2c(N=NN(C)C)[nH]nc2n1,-21.8%
8,Cc1nnc(SCC(C)C)[nH]c1=O,15.1%
9,O=C(NCC(F)(F)F)Nc1cccnc1,9.93%
10,O=C(O)C1(S(=O)(=O)c2ccc(Cl)cc2)CCC1,35.3%
11,COc1cccc(C(=O)Nc2nc(SCc3ccc(Cl)cc3)n[nH]2)c1,5.27%
12,O=C(CC1Oc2ccccc2NC1=O)NC1CCCC1 (centres unmarked),9.49%
13,COc1ccc(NC(=O)CSc2nccn2Cc2ccco2)c(OC)c1,5.93%
14,CCOC(=O)c1c(NC(=S)Nc2ccc(Cl)cc2)sc2c1CCN(C)C2,-74.2%
15,NC(=O)c1cc(C(=O)Cc2ccccc2)c[nH]1,16.4%
16,COc1cccc(NC(=O)Nc2cc(C(=O)O)ccc2N2CC3CC(C2)c2cccc(=O)n2C3)c1 (centres unmarked),8.25%
17,Cc1cc(Cl)ccc1OCCCC(=O)NNC(=O)c1ccccc1O,5.88%
18,COC(=O)c1c(NC(=O)CSc2nnnn2-c2ccccc2)sc2c1CCC(C(C)(C)C)C2 (centres unmarked),-1.38%
